# PMC4336329 (PLoS ONE, 2015)
# The campaign covered roughly 310,000 compounds. About 14,000 (4.5%) showed an effect of 50% or more. Effects have a minus sign here. Some of the results follow.
# Target: human ether-à-go-go-related gene (hERG) potassium channel (human, UniProt Q12809)
# Assay: primary screen, population patch clamp on CHO cells stably expressing hERG
# 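Also: peak tail current of the secondary pulse compared with the same well before compound.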
# Sequence of human ether-à-go-go-related gene (hERG) potassium channel (Q12809 whole entry, looked up): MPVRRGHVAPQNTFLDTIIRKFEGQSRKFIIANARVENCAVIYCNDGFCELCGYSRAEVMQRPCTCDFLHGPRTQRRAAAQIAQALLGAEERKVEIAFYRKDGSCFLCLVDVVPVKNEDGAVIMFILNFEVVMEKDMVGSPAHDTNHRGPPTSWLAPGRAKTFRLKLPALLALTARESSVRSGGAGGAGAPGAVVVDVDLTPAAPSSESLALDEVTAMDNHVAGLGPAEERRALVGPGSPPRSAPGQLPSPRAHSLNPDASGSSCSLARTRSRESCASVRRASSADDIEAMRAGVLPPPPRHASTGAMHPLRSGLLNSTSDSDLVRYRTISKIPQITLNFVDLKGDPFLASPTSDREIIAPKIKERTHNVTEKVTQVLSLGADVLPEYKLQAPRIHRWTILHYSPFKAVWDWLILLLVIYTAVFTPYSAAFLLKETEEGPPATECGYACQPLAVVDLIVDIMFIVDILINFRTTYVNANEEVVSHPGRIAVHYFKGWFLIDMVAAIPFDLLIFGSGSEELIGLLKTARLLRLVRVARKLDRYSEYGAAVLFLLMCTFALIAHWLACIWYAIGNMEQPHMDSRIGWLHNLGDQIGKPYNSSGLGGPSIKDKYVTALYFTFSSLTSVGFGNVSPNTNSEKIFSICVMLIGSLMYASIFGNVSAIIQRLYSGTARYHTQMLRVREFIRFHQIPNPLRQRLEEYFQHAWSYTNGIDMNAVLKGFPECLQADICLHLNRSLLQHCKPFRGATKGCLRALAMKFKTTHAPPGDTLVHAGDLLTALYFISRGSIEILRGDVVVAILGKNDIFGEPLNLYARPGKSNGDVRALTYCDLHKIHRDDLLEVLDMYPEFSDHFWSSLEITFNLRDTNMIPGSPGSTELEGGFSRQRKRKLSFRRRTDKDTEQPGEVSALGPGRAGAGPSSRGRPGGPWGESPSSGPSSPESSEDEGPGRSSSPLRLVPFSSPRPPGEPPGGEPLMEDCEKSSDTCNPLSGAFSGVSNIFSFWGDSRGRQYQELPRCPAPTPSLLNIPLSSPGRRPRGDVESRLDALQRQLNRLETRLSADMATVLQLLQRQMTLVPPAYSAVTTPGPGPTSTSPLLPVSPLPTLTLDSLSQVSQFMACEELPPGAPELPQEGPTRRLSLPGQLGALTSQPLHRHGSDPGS
row,SMILES,"hERG current change (%, negative = inhibition) at 10uM"
1,O=c1c2ccccc2ncn1-c1ccc2c(c1)OCCO2,-4.29%
2,Cc1ccc(CC2CC(=O)N(c3ccc(Cl)cn3)C2=O)cc1 (stereo not drawn),-2.53%
3,COCC(C)NC(=O)c1oc2c(c1C)C1(CCC2)SCCS1 (stereo not drawn),-7.04%
4,CCC(Sc1ccccc1C(=O)O)C(=O)O (stereo not drawn),20.8%
5,CCOC(=O)c1ccc2c(c1)N(C)C(=O)c1ccccc1S2,13.5%
6,CCCc1cc(=O)oc2c3c(cc(OCC(=O)NCCN4CCOCC4)c12)OC(C)(C)CC3,-18.3%
7,COc1ccccc1C(=O)NCCC(=O)NCc1cccs1,1.11%
8,C/C(=N\NC(=O)c1cccnc1)c1ccc(C)c([N+](=O)[O-])c1,-7.18%
9,CCCCn1nnc(NC(=O)c2ccc(-c3ccccc3[N+](=O)[O-])o2)n1,-14.2%
10,COCc1nnc(NC(=O)CCC2CCCCC2)s1,6.48%
11,Cc1ccccc1NC(=O)CN1C(=O)S/C(=C/c2cccnc2)C1=O,14.6%
12,COc1ccc(CCNC(=O)/C(=C/c2cccnc2)NC(=O)c2ccccc2)cc1OC,-3.35%
13,Cc1sc(NC(=O)CSc2nnnn2C(C)C)c(C#N)c1C,7.38%
14,Cl.NCCCC(N)(C(=O)O)C(F)F (stereo not drawn),15.6%
15,FC(F)c1nnc2ccc(Cl)nn12,48.9%
16,COc1cccc(C(=O)Nc2ccccc2F)c1,8.37%
17,O=c1c(NCCc2ccccc2)c(-c2ccccc2)c1=O,26%
18,CCN(CC)S(=O)(=O)c1ccc2oc(C(=O)O)c(C)c2c1,-0.769%
19,O=C(COc1ccc(Cl)cc1)NCc1nnc(SCC(=O)N2CCCC2)o1,-3.79%
20,CC(=O)Nc1ccc(C(=O)CN2C(=O)CSC2=O)cc1,1.3%
21,CN(CC(=O)Nc1ccc(Cl)c(C(F)(F)F)c1)C(=O)/C=C/c1cccs1,10.6%
22,CC1CCCCC1NC(=O)/C=C/c1nc2ccccc2s1 (stereo not drawn),-3.45%
23,CC(=O)c1ccc(NC(=O)CCn2c(=S)oc3ccccc32)cc1,12.7%
24,CCOC(=O)c1c(C)n(C)c2ccc(O)c(CN(C)C)c12.O=C(O)C(=O)O,-6.82%
25,COc1ccc2c(-c3ccccc3)cc(SCC(=O)N(C)C)nc2c1,-22.9%
26,CC(=O)c1nn(-c2ccc(Cl)cc2)c(=O)[nH]c1=O,-30.7%
27,CCOc1ccc(S(=O)(=O)n2c([N+](=O)[O-])cnc2C)c(C)c1C.O=C(O)C(=O)O,-8.84%
